# Laboratory results published in the supplement of paper PMC8728848.
# Some of the results follow.
# B1: Gal 8 (Homo sapiens) (protein)
# chain: MLSLNNLQNIIYNPVIPYVGTIPDQLDPGTLIVICGHVPSDADRFQVDLQNGSSVKPRADVAFHFNPRFKRAGCIVCNTLINEKWGREEITYDTPFKREKSFEIVIMVLKDKFQVAVNGKHTLLYGHRIGPEKIDTLGIYGKVNIHSIGFSFSSDLQSTQASSLELTEISRENVPKSGTPQLQTVSPSWDLQGHGSETFCSVLWTRVFLEIAFCRPIGLTVASFQSLPFAARLNTPMGPGRTVVVKGEVNANAKSFNVDLLAGKSKDIALHLNPRLNIKAFVRNSFLQESWGEEERNITSFPFSPGMYFEMIIYCDVREFKVAVNGVHSLEYKHRFKELSSIDTLEINGDIHLLEVRSW
# How the values were obtained:
# Assay in all cases: glycan array binding signal (z-score within array); higher = stronger binding
# Conditions in all cases: glycan notation: IUPAC condensed, linker removed
# [1] = biological target: Man(a1-2)Man(a1-6)[Man(a1-3)]Man(a1-6)[Man(a1-2)Man(a1-2)Man(a1-3)]Man(b1-4)GlcNAc(b1-4)GlcNAc
# Method in brief: (§1)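 The Consortium for Functional Glycomics database supplied 3228 glycan arrays, of which those lacking an available protein sequence were dropped. The binding signal, a within-array Z-score, was averaged across arrays of the same protein sequence and across linkers. Negative scores can be read as non-binding.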
# Man(a1-3)[Man(a1-6)]Man = biological target: Man(a1-3)[Man(a1-6)]Man
# Method in brief: as §1
# [2] = biological target: Man(a1-3)[Man(a1-6)]Man(a1-6)[Man(a1-2)Man(a1-3)]Man(b1-4)GlcNAc(b1-4)GlcNAc
# Method in brief: as §1
# [3] = biological target: Man(a1-3)[Man(a1-6)]Man(a1-6)[Man(a1-3)]Man
# Method in brief: as §1
# [4] = biological target: Man(a1-3)[Man(a1-6)]Man(a1-6)[Man(a1-3)]Man(b1-4)GlcNAc(b1-4)GlcNAc
# Method in brief: as §1
# [5] = biological target: Man(a1-3)[Man(a1-6)]Man(b1-4)GlcNAc(b1-4)GlcNAc
# Method in brief: as §1
# [6] = biological target: Man(a1-3)[Man(a1-6)]Man(b1-4)GlcNAc(b1-4)[Fuc(a1-6)]GlcNAc
# Method in brief: as §1
# Man(a1-6)Man = biological target: Man(a1-6)Man
# Method in brief: as §1
# Man(b1-4)GlcNAc = biological target: Man(b1-4)GlcNAc
# Method in brief: as §1
# MurNAc(b1-4)GlcNAc = biological target: MurNAc(b1-4)GlcNAc
# Method in brief: as §1
# Neu5Ac(a2-3)Gal = biological target: Neu5Ac(a2-3)Gal
# Method in brief: as §1
# [7] = biological target: Neu5Ac(a2-3)Gal(b1-3)GalNAc
# Method in brief: as §1
# [8] = biological target: Neu5Ac(a2-3)Gal(b1-3)GalNAc(b1-3)Gal(a1-4)Gal(b1-4)Glc
# Method in brief: as §1
# [9] = biological target: Neu5Ac(a2-3)Gal(b1-3)GalNAc(b1-3)Gal(b1-4)GlcNAc
# Method in brief: as §1
# [10] = biological target: Neu5Ac(a2-3)Gal(b1-3)GalNAc(b1-4)[Neu5Ac(a2-3)]Gal(b1-4)Glc
# Method in brief: as §1
# [11] = biological target: Neu5Ac(a2-3)Gal(b1-3)GalNAc(b1-4)[Neu5Ac(a2-8)Neu5Ac(a2-3)]Gal(b1-4)Glc
# Method in brief: as §1
# [12] = biological target: Neu5Ac(a2-3)Gal(b1-3)GalNAc6S
# Method in brief: as §1
# [13] = biological target: Neu5Ac(a2-3)Gal(b1-3)GlcNAc
# Method in brief: as §1
# [14] = biological target: Neu5Ac(a2-3)Gal(b1-3)GlcNAc(b1-2)Man
# Method in brief: as §1
# [15] = biological target: Neu5Ac(a2-3)Gal(b1-3)GlcNAc(b1-2)Man(a1-3)[GlcNAc(b1-4)][Neu5Ac(a2-3)Gal(b1-3)GlcNAc(b1-2)Man(a1-6)]Man(b1-4)GlcNAc(b1-4)GlcNAc
# Method in brief: as §1
# [16] = biological target: Neu5Ac(a2-3)Gal(b1-3)GlcNAc(b1-2)Man(a1-3)[Neu5Ac(a2-3)Gal(b1-3)GlcNAc(b1-2)Man(a1-6)]Man(b1-4)GlcNAc(b1-4)GlcNAc
# Method in brief: as §1
# [17] = biological target: Neu5Ac(a2-3)Gal(b1-3)GlcNAc(b1-3)Gal(b1-3)GlcNAc
# Method in brief: as §1
# [18] = biological target: Neu5Ac(a2-3)Gal(b1-3)GlcNAc(b1-3)Gal(b1-4)GlcNAc
# Method in brief: as §1
# [19] = biological target: Neu5Ac(a2-3)Gal(b1-3)GlcNAc(b1-3)GalNAc
# Method in brief: as §1
# [20] = biological target: Neu5Ac(a2-3)Gal(b1-3)GlcNAc(b1-4)Gal(b1-4)Glc
# Method in brief: as §1
# [21] = biological target: Neu5Ac(a2-3)Gal(b1-3)GlcNAc(b1-6)GalNAc
# Method in brief: as §1
# [22] = biological target: Neu5Ac(a2-3)Gal(b1-3)GlcNAc6S
# Method in brief: as §1
# [23] = biological target: Neu5Ac(a2-3)Gal(b1-3)[Fuc(a1-4)]GlcNAc
# Method in brief: as §1
# [24] = biological target: Neu5Ac(a2-3)Gal(b1-3)[Fuc(a1-4)]GlcNAc(b1-3)Gal(b1-3)[Fuc(a1-4)]GlcNAc
# Method in brief: as §1
# [25] = biological target: Neu5Ac(a2-3)Gal(b1-3)[Fuc(a1-4)]GlcNAc(b1-3)Gal(b1-4)[Fuc(a1-3)]GlcNAc
# Method in brief: as §1
# [26] = biological target: Neu5Ac(a2-3)Gal(b1-3)[GlcNAc(b1-6)]GalNAc
# Method in brief: as §1
# [27] = biological target: Neu5Ac(a2-3)Gal(b1-3)[Neu5Ac(a2-3)Gal(b1-4)]GlcNAc
# Method in brief: as §1
# [28] = biological target: Neu5Ac(a2-3)Gal(b1-3)[Neu5Ac(a2-6)]GalNAc
# Method in brief: as §1
# [29] = biological target: Neu5Ac(a2-3)Gal(b1-3)[Neu5Ac(a2-6)]GlcNAc(b1-3)[Fuc(a1-3)[Gal(b1-4)]GlcNAc(b1-6)]Gal(b1-4)Glc
# Method in brief: as §1
# [30] = biological target: Neu5Ac(a2-3)Gal(b1-3)]Neu5Ac(a2-3)Gal(b1-4)]GlcNAc
# Method in brief: as §1
# Neu5Ac(a2-3)Gal(b1-4)Glc = biological target: Neu5Ac(a2-3)Gal(b1-4)Glc
# Method in brief: as §1
# [31] = biological target: Neu5Ac(a2-3)Gal(b1-4)GlcNAc
# Method in brief: as §1
binder,measurement,setting,value
B1,glycan array binding signal (z-score),[1],-0.469
same,glycan array binding signal (z-score),Man(a1-3)[Man(a1-6)]Man,-0.382
same,glycan array binding signal (z-score),[2],-0.55
same,glycan array binding signal (z-score),[3],-0.368
same,glycan array binding signal (z-score),[4],-0.545
same,glycan array binding signal (z-score),[5],-0.496
same,glycan array binding signal (z-score),[6],-0.357
same,glycan array binding signal (z-score),Man(a1-6)Man,-0.37
same,glycan array binding signal (z-score),Man(b1-4)GlcNAc,-0.392
same,glycan array binding signal (z-score),MurNAc(b1-4)GlcNAc,-0.357
same,glycan array binding signal (z-score),Neu5Ac(a2-3)Gal,-0.2
same,glycan array binding signal (z-score),[7],0.421
same,glycan array binding signal (z-score),[8],0.798
same,glycan array binding signal (z-score),[9],1.91
same,glycan array binding signal (z-score),[10],1.15
same,glycan array binding signal (z-score),[11],-0.308
same,glycan array binding signal (z-score),[12],0.619
same,glycan array binding signal (z-score),[13],0.664
same,glycan array binding signal (z-score),[14],0.02
same,glycan array binding signal (z-score),[15],-0.352
same,glycan array binding signal (z-score),[16],-0.328
same,glycan array binding signal (z-score),[17],2.53
same,glycan array binding signal (z-score),[18],0.762
same,glycan array binding signal (z-score),[19],-0.168
same,glycan array binding signal (z-score),[20],-0.356
same,glycan array binding signal (z-score),[21],-0.165
same,glycan array binding signal (z-score),[22],1.01
same,glycan array binding signal (z-score),[23],-0.374
same,glycan array binding signal (z-score),[24],-0.356
same,glycan array binding signal (z-score),[25],-0.214
same,glycan array binding signal (z-score),[26],-0.256
same,glycan array binding signal (z-score),[27],-0.317
same,glycan array binding signal (z-score),[28],-0.088
same,glycan array binding signal (z-score),[29],-0.214
same,glycan array binding signal (z-score),[30],-0.357
same,glycan array binding signal (z-score),Neu5Ac(a2-3)Gal(b1-4)Glc,0.714
same,glycan array binding signal (z-score),[31],0.003
